Measurements published in patent US9499612B2, “Antigen binding constructs” (Glaxo Group Limited, priority 2011, dated 2016).

T1: VEGF165 binding to VEGF R1 (Homo sapiens, UniProt P15692)
T1 construct: host or cells: insect cells, baculovirus (VEGF)
T1 sequence (P15692 27-191 isoform P15692-4): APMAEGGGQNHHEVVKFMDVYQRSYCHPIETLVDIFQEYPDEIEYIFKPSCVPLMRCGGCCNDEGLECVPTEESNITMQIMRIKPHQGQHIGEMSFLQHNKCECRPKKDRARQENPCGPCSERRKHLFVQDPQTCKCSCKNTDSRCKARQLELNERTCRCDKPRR

T2: VEGF165 binding to VEGF R2 (Homo sapiens, UniProt P15692)
T2 construct: host or cells: insect cells, baculovirus (VEGF)
T2 sequence (P15692 27-191 isoform P15692-4): T1 sequence (P15692 27-191 isoform P15692-4)

T3: rhVEGF165 (Homo sapiens, UniProt P15692)
T3 construct: made in house; host or cells: HEK293 cells, transient transfection
T3 sequence (P15692 27-191 isoform P15692-4): T1 sequence (P15692 27-191 isoform P15692-4)

B1: DMS30004: Vk Fc-dAb molecule (protein)
chain: [human IgG1 Fc and a few adjoining residues not shown]GSTVAAPSGSTVAAPSGSTVAAPSGSDIQMTQSPSSLSASVGDRVTITCRASQWIGPELKWYQQKPGKAPKLLIYHGSILQSGVPSRFSGSGSGTDFTLTISSLQPEDFATYYCQQYMYYPKTFGQGTKVEIKR
modifications: C-terminal Fc fusion of K-044-255 DAB (GS(TVAAPSGS)x3 Linker) Fc-dAb amino acid sequence identified using molecular biology techniques.
notes: Vk Fc-dAb molecule
B2: DMS30005: Vk dAb-Fc molecule (protein)
chain: ESTDIQMTQSPSSLSASVGDRVTITCRASQWIGPELKWYQQKPGKAPKLLIYHGSILQSGVPSRFSGSGSGTDFTLTISSLQPEDFATYYCQQYMYYPETFGQGTKVEIKRAA[human IgG1 Fc and a few adjoining residues not shown]
modifications: N-terminal Fc fusion of K-044-251 DAB (AAAS Linker) dAb-Fc amino acid sequence identified using molecular biology techniques.
notes: Vk dAb-Fc molecule
B3: DMS30025: Vk-Vk dAb-Fc-dAb (protein)
chain: DIQMTQSPSSLSASVGDRVTITCRASQWIGPELKWYQQKPGKAPKLLIYHGSILQSGVPSRFSGSGSGTDFTLTISSLQPEDFATYYCQQYMYYPHTFGQGTKVEIKRAS[human IgG1 Fc with T225P (EU numbers) not shown]GSTVAAPSGSTVAAPSGSTVAAPSGSDIQMTQSPSSLSASVGDRVTITCRASQWIGPELKWYQQKPGKAPKLLIYHGSILQSGVPSRFSGSGSGTDFTLTISSLQPEDFATYYCQQYMYYPHTFGQGTKVEIKR
modifications: DT02-K-044-085-AS-Fc (T113P)-GS(TVAAPSGS)x3 Linker-DT02-K-044-085 Vh-Vk dAb-Fc-dAb amino acid sequence identified using molecular biology techniques.
B4: DMS30008: Vh-Vk dAb-Fc-dAb (protein)
chain: [about 350 residues with a human IgG1 Fc not shown]EVDETYVPKEFNAETFTFHADDIQMTQSPSSLSASVGDRVTITCRASQWIGPELKWYQQKPGKAPKLLIYHGSILQSGVPSRFSGSGSGTDFTLTISSLQPEDFATYYCQQYMYYPETFGQGTKVEIKR
modifications: DOM15-26-597-AS Linker-Fc-Albumin Domain 3 Linker-DT02-K-044-251 Vh-Vk dAb-Fc-dAb amino acid sequence identified using molecular biology techniques.
B5: DMS30009: Vk-Vk dAb-Fc-dAb (protein)
chain: DIQMTQSPSSLSASVGDRVTITCRASQWIGPELKWYQQKPGKAPKLLIYHGSILQSGVPSRFSGSGSGTDFTLTISSLQPEDFATYYCQQYMYYPHTFGQGTKVEIKR[human IgG1 Fc and a few adjoining residues not shown]EVDETYVPKEFNAETFTFHADDIQMTQSPSSLSASVGDRVTITCRASQWIGPELKWYQQKPGKAPKLLIYHGSILQSGVPSRFSGSGSGTDFTLTISSLQPEDFATYYCQQYMYYPHTFGQGTKVEIKR
modifications: DT02-K-044-085-AS Linker-Fc-Albumin Domain 3 Linker-DT02-K-044-085 Vk-Vk dAb-Fc-dAb amino acid sequence identified using molecular biology techniques.
B6: DMS30023: Vk-Vk dAb-Fc-dAb (protein)
chain: DIQMTQSPSSLSASVGDRVTITCRASQWIGPELKWYQQKPGKAPKLLIYHGSILQSGVPSRFSGSGSGTDFTLTISSLQPEDFATYYCQQYMYYPHTFGQGTKVEIKRV[human IgG1 Fc with changes not shown]GSTVAAPSGSTVAAPSGSTVAAPSGSDIQMTQSPSSLSASVGDRVTITCRASQWIGPELKWYQQKPGKAPKLLIYHGSILQSGVPSRFSGSGSGTDFTLTISSLQPEDFATYYCQQYMYYPHTFGQGTKVEIKR
modifications: DT02-K-044-085-HingeIgG1Linker-Fc-GS(TVAAPSGS)x3 Linker-DT02-K-044-085 Vh-Vk dAb-Fc-dAb amino acid sequence identified using molecular biology techniques.
B7: DMS300024: dAb-Fc-dAb molecule (protein)
chain: DIQMTQSPSSLSASVGDRVTITCRASQWIGPELKWYQQKPGKAPKLLIYHGSILQSGVPSRFSGSGSGTDFTLTISSLQPEDFATYYCQQYMYYPHTFGQGTKVEIKRASTA[human IgG1 Fc not shown]GSTVAAPSGSTVAAPSGSTVAAPSGSDIQMTQSPSSLSASVGDRVTITCRASQWIGPELKWYQQKPGKAPKLLIYHGSILQSGVPSRFSGSGSGTDFTLTISSLQPEDFATYYCQQYMYYPHTFGQGTKVEIKR
modifications: DT02-K-044-085-AS-Fc (H112A)-GS(TVAAPSGS)x3 Linker-DT02-K-044-085 Vh-Vk dAb-Fc-dAb amino acid sequence identified using molecular biology techniques.
notes: dAb-Fc-dAb molecule
B8: N085T2P: Vk dAb-Fc, DT02-K-085 dAb attached to N-terminus of IgG1Fc by T113P (T2P) or ASTHP linker (protein)
chain: DIQMTQSPSSLSASVGDRVTITCRASQWIGPELKWYQQKPGKAPKLLIYHGSILQSGVPSRFSGSGSGTDFTLTISSLQPEDFATYYCQQYMYYPHTFGQGTKVEIKRAS[human IgG1 Fc with T225P (EU numbers) not shown]
modifications: N-terminal Fc fusion of K-044-085 DAB (ASTHP linker) amino acid sequence identified using molecular biology techniques.
notes: Vk dAb-Fc, DT02-K-085 dAb attached to N-terminus of IgG1Fc by T113P (T2P) or ASTHP linker
B9: C085 helical: Vk Fc-dAb, DT02-K-085 dAb attached to IgG1Fc by C-terminal helical linker (protein)
chain: [human IgG1 Fc not shown]KEAAAKEAAAKEAAAKELAAKEAAAKEAAAKEAAAKELAADIQMTQSPSSLSASVGDRVTITCRASQWIGPELKWYQQKPGKAPKLLIYHGSILQSGVPSRFSGSGSGTDFTLTISSLQPEDFATYYCQQYMYYPHTFGQGTKVEIKR
modifications: C-terminal Fc fusion of K-044-085 DAB (Helical Linker) amino acid sequence identified using molecular biology techniques.
notes: Vk Fc-dAb, DT02-K-085 dAb attached to IgG1Fc by C-terminal helical linker
B10: DMS30028: Vk dAb-Fc, DT02-K-085 dAb attached to N-terminus of IgG1Fc by IgG1 Hinge linker (protein)
chain: DIQMTQSPSSLSASVGDRVTITCRASQWIGPELKWYQQKPGKAPKLLIYHGSILQSGVPSRFSGSGSGTDFTLTISSLQPEDFATYYCQQYMYYPHTFGQGTKVEIKRV[human IgG1 Fc with changes not shown]
modifications: N-terminal Fc fusion of K-044-085 DAB (IgG1 Hinge) amino acid sequence identified using molecular biology techniques.
notes: Vk dAb-Fc, DT02-K-085 dAb attached to N-terminus of IgG1Fc by IgG1 Hinge linker

Legend:
[1] = biological target: T1, VEGF165 binding to VEGF R1; experiment: Modified VEGF R1 receptor binding assay (no pre-incubation); settings: Table 6A; VEGFR1
[2] = biological target: T2, VEGF165 binding to VEGF R2; experiment: Modified VEGF R2 receptor binding assay (no pre-incubation); settings: for Max. % Inhibition: Table 6B, VEGFR2; for inhibition achieved against VEGFR2: Example 26 text, summarising Table 8B
[3] = tested on: VEGF165 induced proliferation of human umbilical vein endothelial cells; experiment: Human Umbilical Cord Endothelial Cell (HUVEC) proliferation assay; format: cell-based; settings: for EC50 compared to Bevacizumab (in words): Example 27, whole 96 well plate used
rhVEGF165 = biological target: T3, rhVEGF165; experiment: BIACORE T100 SPR binding to VEGF165 at 37° C.; settings: for comment / Ka: Table 11B; for Ka: VEGF 128 nM to 0.03125 nM
Protocol: (§1) The run was carried out at 37° C., using HBS-EP as the running buffer.
as §1, §1, §1, §1

| Molecule | inhibition achieved against VEGFR2 [2] | EC50 compared to Bevacizumab (in words) [3] | comment (rhVEGF165) | further results |
| --- | --- | --- | --- | --- |
| B1 | – | – | – | Max. % Inhibition [1]: 87-89%; Max. % Inhibition [2]: 90% |
| B2 | – | – | – | Max. % Inhibition [1]: 82%; Max. % Inhibition [2]: 86%; inhibition of VEGF driven HUVEC proliferation ([3]; Example 18): 70-80%; fit of binding data (cell spanning ka, kd, KD) (rhVEGF165; Table 5, 37 °C): Poor fit to 1:1 model |
| B3 | 75-87% | improved over Bevacizumab | – | – |
| B4 | 75-87% | – | – | – |
| B5 | 75-87% | – | – | – |
| B6 | 75-87% | improved over Bevacizumab | – | maximal inhibition ([2]; Example 40 text, data set of Table 13A): 78-84% |
| B7 | – | improved over Bevacizumab | – | – |
| B8 | – | – | Biphasic curves | Ka (rhVEGF165; 37 °C): 9.40E+06 M − 1 · s − 1 |
| B9 | – | – | Good fit to the 1:1 binding model | Ka (rhVEGF165; 37 °C): 1.00E+07 M − 1 · s − 1 |
| B10 | – | – | Biphasic curves | – |
